According to patent US11207320B2, “Compositions and methods for cancer expressing PDE3A or SLFN12” (The Broad Institute, Inc., priority 2015, dated 2021):
This continues a long series; more values of the same kind are listed elsewhere.

Tested on: 766 cancer cell lines
Assay: Large-scale cell-line viability measurements (766 cancer cell lines, 72 h, AUC)
Type: cell-based, human
Procedure: Cell lines were treated for 72 hours with concentrations ranging from 66.4 μM-2 nM in 2-fold step dilutions.
To characterize cellular sensitivity to DNMDP further, 766 genomically characterized cancer cell lines were screened for DMNDP sensitivity at concentrations ranging from 66.4 μM to 2 nM in 2-fold dilution steps for 72 hours. From these cell lines, 22 cell lines were categorized as sensitive with a robust Z-score lower than −4, which represented multiple lineages including multiple melanoma cell lines, amongst others (Table 1).
The sensitivity of […] cancer cell lines (CCLs) was measured drawn from 23 different lineages to DNMDP. Each cell line was plated in its preferred media in white opaque 1536-plates at a density of 500 cells/well. After incubating overnight, DNMDP was added by acoustic transfer at 16 concentrations ranging from 66.4 μM-2 nM in 2-fold steps in duplicate (Labcyte Echo 555, Labcyte Inc., Sunnyvale, Calif.). After 72 hours treatment, cellular ATP levels were measured as a surrogate for viability (CELLTITERGLO®, Promega Corporation, Madison, Wis.) according to manufacturer's protocols using a ViewLux Microplate Imager (PerkinElmer, Waltham, Mass.) and normalized to background (media-only) and vehicle (DMSO)-treated control wells.
Concentration response curves were fit using nonlinear fits to 2- or 3-parameter sigmoid functions through all 16 concentrations with the low-concentration asymptote set to the DMSO-normalized value, and an optimal 8-point dose curve spanning the range of compound-sensitivity was identified. The area under the 8-point dose curve (AUC) was computed by numeric integration as a metric for sensitivity for further analysis. Similar sensitivity measurements have been obtained for a collection of 480 other compounds, enabling analyses that identify cell lines responding uniquely to DNMDP (see Broad Institute Cancer Therapeutics Response Portal, a dataset to identify comprehensively relationships between genetic and lineage features of human cancer cell lines and small-molecule sensitivities for complete list of compounds).

[1] = cell line HL60 (HAEMATOPOIETIC AND LYMPHOID TISSUE)
[2] = cell line HPAC, PANCREAS, 72 hours
[3] = cell line HPBALL (HAEMATOPOIETIC AND LYMPHOID TISSUE)
[4] = cell line HS683 (CENTRAL NERVOUS SYSTEM)
[5] = cell line HS688AT, SKIN, 72 hours
[6] = cell line HS819T, BONE, 72 hours
[7] = cell line HSC2 (UPPER AERODIGESTIVE TRACT)
[8] = cell line HSC3, UPPER AERODIGESTIVE TRACT, 72 hours
[9] = cell line HSC4 (UPPER AERODIGESTIVE TRACT)
[10] = cell line HT29, LARGE INTESTINE, 72 hours
[11] = cell line HT55 (LARGE INTESTINE)
[12] = cell line HT115 (LARGE INTESTINE)
[13] = cell line HT1376 (URINARY TRACT)
[14] = cell line HT (HAEMATOPOIETIC AND LYMPHOID TISSUE)
[15] = cell line HUCCT1, BILIARY TRACT, 72 hours
[16] = cell line HUH1, LIVER, 72 hours
[17] = cell line HUNS1, HAEMATOPOIETIC AND LYMPHOID TISSUE, 72 hours
[18] = cell line HUPT4, PANCREAS, 72 hours
[19] = cell line IMR32, AUTONOMIC GANGLIA, 72 hours
[20] = cell line IPC298, SKIN, 72 hours
[21] = cell line ISHIKAWAHERAKLIO02ER (ENDOMETRIUM)
[22] = cell line JHH6, LIVER, 72 hours
[23] = cell line JK1 (HAEMATOPOIETIC AND LYMPHOID TISSUE)

`CCN(CC)c1ccc(C2=NNC(=O)CC2C)cc1[N+](=O)[O-]` (centres unmarked) [DNMDP, 6-(4-(diethylamino)-3-nitrophenyl)-5-methyl-4,5-dihydropyridazin-3(2H)-one] was tested, and the “DNMDP AUC” value (cell line HGC27 (STOMACH)) was 6.595, the “Robust Z-score” value (cell line HGC27 (STOMACH)) was −0.04162 and the “DNMDP AUC” value [1] was 6.7796. For the same molecule, the “Robust Z-score” value [1] was 0.1521, the “DNMDP AUC” value (cell line HMC18 (BREAST)) was 6.8147 and the “Robust Z-score” value (cell line HMC18 (BREAST)) was 0.189. The “DNMDP AUC” value [2] was 7.1394, the “Robust Z-score” value [2] was 0.5298 and the “DNMDP AUC” value (cell line HPAFII (PANCREAS)) was 6.7751. For the same molecule, the “Robust Z-score” value (cell line HPAFII (PANCREAS)) was 0.1474, the “DNMDP AUC” value [3] was 6.5743 and the “Robust Z-score” value [3] was −0.06335. The “DNMDP AUC” value [4] was 7.0975, the “Robust Z-score” value [4] was 0.4858 and the “DNMDP AUC” value [5] was 7.1049. The “Robust Z-score” value [5] was 0.4936, the “DNMDP AUC” value (cell line HS746T (STOMACH)) was 7.1012 and the “Robust Z-score” value (cell line HS746T (STOMACH)) was 0.4897. The “DNMDP AUC” value [6] was 7.1097, the “Robust Z-score” value [6] was 0.4986 and the “DNMDP AUC” value (cell line HS822T (BONE)) was 6.9115. For the same molecule, the “Robust Z-score” value (cell line HS822T (BONE)) was 0.2906, the “DNMDP AUC” value (cell line HS895T (SKIN)) was 6.8118 and the “Robust Z-score” value (cell line HS895T (SKIN)) was 0.1859. For the same molecule, the “DNMDP AUC” value (cell line HS944T (SKIN)) was 6.8697, the “Robust Z-score” value (cell line HS944T (SKIN)) was 0.2467 and the “DNMDP AUC” value [7] was 6.59. For the same molecule, the “Robust Z-score” value [7] was −0.04687, the “DNMDP AUC” value [8] was 7.2237 and the “Robust Z-score” value [8] was 0.6183. The “DNMDP AUC” value [9] was 6.8327, the “Robust Z-score” value [9] was 0.2079 and the “DNMDP AUC” value [10] was 7.364. For the same molecule, the “Robust Z-score” value [10] was 0.7656, the “DNMDP AUC” value [11] was 6.6554 and the “Robust Z-score” value [11] was 0.02178. The “DNMDP AUC” value [12] was 6.8303, the “Robust Z-score” value [12] was 0.2054 and the “DNMDP AUC” value (cell line HT144 (SKIN)) was 6.7297. The “Robust Z-score” value (cell line HT144 (SKIN)) was 0.09977, the “DNMDP AUC” value (cell line HT1080 (SOFT TISSUE)) was 6.5745 and the “Robust Z-score” value (cell line HT1080 (SOFT TISSUE)) was −0.06314. The “DNMDP AUC” value [13] was 6.7994, the “Robust Z-score” value [13] was 0.1729 and the “DNMDP AUC” value [14] was 6.9476. For the same molecule, the “Robust Z-score” value [14] was 0.3285, the “DNMDP AUC” value [15] was 7.1094 and the “Robust Z-score” value [15] was 0.4983. For the same molecule, the “DNMDP AUC” value [16] was 7.4298, the “Robust Z-score” value [16] was 0.8346 and the “DNMDP AUC” value (cell line HUH6 (LIVER)) was 6.6437. For the same molecule, the “Robust Z-score” value (cell line HUH6 (LIVER)) was 0.009499, the “DNMDP AUC” value [17] was 7.6648 and the “Robust Z-score” value [17] was 1.081. The “DNMDP AUC” value (cell line HUPT3 (PANCREAS)) was 6.837, the “Robust Z-score” value (cell line HUPT3 (PANCREAS)) was 0.2124 and the “DNMDP AUC” value [18] was 7.4555. For the same molecule, the “Robust Z-score” value [18] was 0.8616, the “DNMDP AUC” value (cell line IGR39 (SKIN)) was 6.6163 and the “Robust Z-score” value (cell line IGR39 (SKIN)) was −0.01926. The “DNMDP AUC” value (cell line IGROV1 (OVARY)) was 7.0026, the “Robust Z-score” value (cell line IGROV1 (OVARY)) was 0.3862 and the “DNMDP AUC” value [19] was 7.4593. The “Robust Z-score” value [19] was 0.8656, the “DNMDP AUC” value [20] was 7.1984 and the “Robust Z-score” value [20] was 0.5917. The “DNMDP AUC” value [21] was 6.8313, the “Robust Z-score” value [21] was 0.2064 and the “DNMDP AUC” value (cell line JHH1 (LIVER)) was 6.8737. The “Robust Z-score” value (cell line JHH1 (LIVER)) was 0.2509, the “DNMDP AUC” value (cell line JHH2 (LIVER)) was 6.9004 and the “Robust Z-score” value (cell line JHH2 (LIVER)) was 0.2789. For the same molecule, the “DNMDP AUC” value [22] was 7.2377, the “Robust Z-score” value [22] was 0.633 and the “DNMDP AUC” value (cell line JHOC5 (OVARY)) was 6.9036. The “Robust Z-score” value (cell line JHOC5 (OVARY)) was 0.2823, the “DNMDP AUC” value (cell line JHUEM2 (ENDOMETRIUM)) was 6.608 and the “Robust Z-score” value (cell line JHUEM2 (ENDOMETRIUM)) was −0.02797. For the same molecule, the “DNMDP AUC” value [23] was 6.9966, the “Robust Z-score” value [23] was 0.3799 and the “DNMDP AUC” value (cell line JL1 (PLEURA)) was 6.6309. For the same molecule, the “Robust Z-score” value (cell line JL1 (PLEURA)) was −0.003936 and the “DNMDP AUC” value (cell line JURLMK1, HAEMATOPOIETIC AND LYMPHOID TISSUE, 72 hours) was 8.1126.
